Results as given in the supplement of paper PMC4604168 (melanoma cell lines).
This is one part of the list. Most values come without repeats; read them as rough.

Each compound was assayed on WM451Lu (assay: cell count relative to DMSO control; melanoma cells; higher = more viable cells). Settings: library dose: low library concentration; 72 h.
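Further: cell number obtained by counting DAPI-stained nuclei in high-throughput microscope images with image analysis software, screen run in 1,536-well plates.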

| Structure (SMILES) | cell count [%] |
| --- | --- |
| COc1cc([C@@H]2c3cc4c(cc3[C@@H](O[C@@H]3O[C@@H]5CO[C@@H](C)O[C@H]5[C@H](O)[C@H]3O)[C@H]3COC(=O)[C@H]23)OCO4)cc(OC)c1O [etoposide] + Cn1cc(C2=C(c3cn(C4CCN(Cc5ccccn5)CC4)c4ccccc34)C(=O)NC2=O)c2ccccc21 [Enzastaurin] (first compound 0.02 µM, partner dose 0.8 µM) | 133 |
| O=C(Nc1cccc(Cl)c1)Nc1ncc(CCNc2ncnc3ccsc23)s1 + C/C(O)=C(\C#N)C(=O)Nc1cc(Br)ccc1Br [LFM-A13] (first compound 0.0008 µM, partner dose 2 µM) | 113 |
| CCN(CC)CCNC(=O)c1c(C)[nH]c(/C=C2\C(=O)Nc3ccc(F)cc32)c1C [sunitinib] + Cc1cc(SCc2sc(-c3ccc(C(F)(F)F)c(F)c3)nc2C)ccc1OCC(=O)O [GW0742] (first compound 0.4 µM, partner dose 2 µM) | 94.8 |
| O=C(Oc1ccc([N+](=O)[O-])cc1)N1CCC(C(O)(c2ccc3c(c2)OCO3)c2ccc3c(c2)OCO3)CC1 + CC(C)CCN1c2nc(Nc3cc(F)c(O)c(F)c3)ncc2N(C)C(=O)C1C [BID1870] (first compound 1 µM, partner dose 0.2 µM) | 109 |
| NC1(c2ccc(-c3nc4ccn5c(=O)[nH]nc5c4cc3-c3ccccc3)cc2)CCC1 + N.N.[Cl][Pt][Cl] [cisplatin] (first compound 0.4 µM, partner dose 1.6 µM) | 92.4 |
| Cc1cc(SCc2sc(-c3ccc(C(F)(F)F)c(F)c3)nc2C)ccc1OCC(=O)O + O=c1cc(-c2cccc3c2Sc2ccccc2S3)oc(N2CCOCC2)c1 [KU55933] (first compound 2 µM, partner dose 1 µM) | 121 |
| Cc1cc(SCc2sc(-c3ccc(C(F)(F)F)c(F)c3)nc2C)ccc1OCC(=O)O + O=C(Oc1ccc([N+](=O)[O-])cc1)N1CCC(C(O)(c2ccc3c(c2)OCO3)c2ccc3c(c2)OCO3)CC1 [JZL184] (first compound 2 µM, partner dose 1 µM) | 93.7 |
| O=C(Nc1cc(C(F)(F)F)cc(C(F)(F)F)c1)c1cc(Cl)ccc1O + C[C@]12O[C@H](C[C@]1(O)CO)n1c3ccccc3c3c4c(c5c6ccccc6n2c5c31)CNC4=O [Lestaurtinib] (first compound 0.016 µM, partner dose 0.004 µM) | 102 |
| CCCCCCCCc1ccc(CCC(N)(CO)CO)cc1 [fingolimod] + N.N.[Cl][Pt][Cl] [cisplatin] (first compound 2 µM, partner dose 1.6 µM) | 89.3 |
| O=S(=O)(c1ccccc1)N(CC(F)(F)F)c1ccc(C(O)(C(F)(F)F)C(F)(F)F)cc1 + O=C(Oc1ccc([N+](=O)[O-])cc1)N1CCC(C(O)(c2ccc3c(c2)OCO3)c2ccc3c(c2)OCO3)CC1 [JZL184] (first compound 1.4 µM, partner dose 1 µM) | 109 |
| O=C(/C=C/c1cccnc1)NCCCCC1CCN(C(=O)c2ccccc2)CC1 + O=C(Oc1ccc([N+](=O)[O-])cc1)N1CCC(C(O)(c2ccc3c(c2)OCO3)c2ccc3c(c2)OCO3)CC1 [JZL184] (first compound 0.01 µM, partner dose 1 µM) | 103 |
| NC1(c2ccc(-c3nc4ccn5c(=O)[nH]nc5c4cc3-c3ccccc3)cc2)CCC1 + Cc1cc(SCc2sc(-c3ccc(C(F)(F)F)c(F)c3)nc2C)ccc1OCC(=O)O [GW0742] (first compound 0.4 µM, partner dose 2 µM) | 116 |
| NC1(c2ccc(-c3nc4ccn5c(=O)[nH]nc5c4cc3-c3ccccc3)cc2)CCC1 + C[As](C)SC[C@H](NC(=O)CC[C@H](N)C(=O)O)C(=O)NCC(=O)O [Darinaparsin] (first compound 0.4 µM, partner dose 0.4 µM) | 83.9 |
| COc1ccc(C2=N[C@@H](c3ccc(Cl)cc3)[C@@H](c3ccc(Cl)cc3)N2C(=O)N2CCNC(=O)C2)c(OC(C)C)c1 [Nutlin-3] + O=C(Oc1ccc([N+](=O)[O-])cc1)N1CCC(C(O)(c2ccc3c(c2)OCO3)c2ccc3c(c2)OCO3)CC1 [JZL184] (first compound 0.1 µM, partner dose 1 µM) | 102 |
